Among all 210,000 compounds or so, about 5,900 (2.8%) were called active. The inconclusive results got no clear call from the source; some entries with a clear call stand among them for comparison. Calls come from the whole dose curve; as a rule, active = well fitted activation curve with a large enough effect; inconclusive = small, poorly fitted or top-dose-only effect; inactive = no such curve, though single readings can be large or run the other way. Potencies of inconclusive entries are doubtful fits and often do not repeat.
Test: qHTS Assay for Enhancers of SMN2 Splice Variant Expression; note: nearly all actives have a fitted effect of over 55% in size
Settings: HEK293 SMN2-luciferase splicing reporter, luminescence, 30-36 h; series mostly up to 46.1 µM
Outline: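 HEK293 cells carry an SMN2 […]–luciferase reporter in which exon 7 inclusion puts luciferase in frame. Cells were plated 10-12 h before compound addition, then incubated 30-36 h at 37C. ONE-Glo luminescence was read; sodium butyrate at 4.5 mM final served as control.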
Potency is the fitted concentration of half-maximal effect; tags give direction and shape of the fitted curve.

Compound | Potency
COc1ccc(NC(=O)Nc2cc(F)ccc2C)cc1 | inactive
N#Cc1ccccc1OCC(=O)N1CCN(c2ccccc2)CC1 | inactive
CC(C)(C)NC(=O)c1cccc(NC(=O)c2cccc(O)c2)c1 | inactive
COc1ccc2oc(=O)cc(CN3CCN(C(=O)c4ccccc4Br)CC3)c2c1 | inactive
CNC(=O)CSc1nnc(SCCC(=O)O)s1 | inactive
Cn1c(CC2C(=O)Nc3ccc(Br)cc32)nc2ccccc2c1=O (centres undefined) | inactive
Cc1ccccc1NC(=O)c1onc2c1CCCC2 | inconclusive: 17.8 µM [activator, single point]
Cc1ccc2c(CC(=O)O)coc2c1 | inconclusive: 0.251 µM [activator, full curve, poor fit]
Cc1nn(-c2ccccc2)c(C)c1/C=N\NS(=O)(=O)c1ccc(Cl)cc1 | inactive
COC(=O)[C@@H](NC(=O)Nc1ccc(OC)cc1)C(C)C | inconclusive: 0.0398 µM [activator, full curve]
c1ccc2oc(-c3csc(NCC4CCCO4)n3)cc2c1 (centres undefined) | inconclusive: 0.562 µM [activator, full curve]
O=c1c2c(C(F)(F)F)cc(C(F)(F)F)nc2[nH]n1-c1ccccc1 | inactive
COc1cc(NC(=S)Nc2ccccn2)c(OC)cc1Cl | inconclusive: 6.31 µM [activator, partial curve, poor fit]
Cc1ccc(C(=O)/C=C/Nc2ccc([N+](=O)[O-])cc2Br)cc1 | inconclusive: 35.5 µM [activator, single point]
O=c1ccc2ccc(O)c(O)c2o1 | inconclusive: 14.1 µM [activator, single point]
CC(C)(O)C(=O)NN(C(=O)c1ccccc1)c1ccc2ccccc2c1 | inconclusive: 3.55 µM [activator, single point]
C/C(=N\O)c1ccc2c3c([nH]c2c1)CCCC3 | inconclusive: 12.6 µM [activator, partial curve]
Cn1nnnc1SCC(=O)Nc1ccc2c(c1)OCO2 | inconclusive: 12.6 µM [activator, partial curve]
CC(=O)Nc1nonc1NC(=O)c1ccc(C(C)(C)C)cc1 | inconclusive: 35.5 µM [activator, single point]
COc1ccc(/C=C/C(=O)N(C)C2CCCCC2)cc1Br | inconclusive: 12.6 µM [activator, partial curve, poor fit]
COc1ccc(/C=C/C(=O)Nc2cccc(F)c2)cc1 | active: 3.98 µM
O=C(NC(=Nc1nc2ccccc2o1)NC(=O)c1ccccc1)c1ccccc1 | inconclusive: 17.8 µM [activator, single point]
Cc1ccc(-c2nn3c(C)nnc3c3ccccc23)cc1S(=O)(=O)NC(C)(C)CO | inconclusive: 2 µM [activator, full curve, poor fit]
CCCCC1OC23CCCCC2C(C#N)(C#N)C1(C#N)C(=N)O3 (centres undefined) | inconclusive: 0.0631 µM [activator, full curve, poor fit]
Cc1ccc(CNC(=O)COC(=O)c2cncc(Br)c2)cc1 | inactive

Compound | Potency
O=C(/C=C/Nc1ccccc1F)c1ccc(Br)cc1 | active: 5.01 µM
COc1cc2c(cc1OC)-c1cc(OCc3ccccc3Cl)nc(=O)n1CC2 | inconclusive: 11.2 µM [activator, single point]
O=C(N/C(=C\c1cccc([N+](=O)[O-])c1)C(=O)N1CCCCC1)c1cccs1 | inactive
O=C(O)CN=C(NS(=O)(=O)c1ccccc1)c1ccccc1 | inconclusive: 6.31 µM [activator, single point]
CCOC(=O)CN(C)Cc1c[nH]c2ccccc12 | inconclusive: 0.141 µM [activator, full curve]
Cc1ccc([N+](=O)[O-])cc1S(=O)(=O)Nc1ccccn1 | inactive
CCCn1c(CNc2ccccc2O)nc2ccccc21 | inconclusive: 5.62 µM [activator, full curve, poor fit]
COc1cc(/C=C(\C#N)C(=O)NCC2CCCO2)c([N+](=O)[O-])cc1OC (centres undefined) | inconclusive: 2.82 µM [activator, single point]
Nc1nc2ccccc2n1C(=O)CCc1ccccc1 | active: 10 µM
C/C(=N\NC(=O)c1ccccc1F)c1ccc2c(c1)Nc1ccccc1S2 | inconclusive: 35.5 µM [activator, single point]
Cc1oc(C(=O)O)cc1COc1ccc2c3c(c(=O)oc2c1C)CCC3 | inconclusive: 20 µM [activator, single point]
CCC(C)NS(=O)(=O)c1ccc(S(=O)(=O)N(CC(=O)Nc2ccccc2)Cc2ccco2)cc1 (centres undefined) | inactive
CCN1C(=O)/C(=C2/C=Cc3ccccc3N2C)OC1=S | inconclusive: 31.6 µM [activator, single point]
Cc1scc(C(=O)N/N=C/c2ccc(OC(C)C)cc2)c1C | inconclusive: 31.6 µM [activator, partial curve, poor fit]
CCCCC(=O)Nc1nnc(-c2ccc(OC)cc2)s1 | inconclusive: 8.91 µM [activator, partial curve]
CCn1cc(/C=N\NC(=O)C2(C)CC2(Cl)Cl)c(C)n1 (centres undefined) | inconclusive: 4.47 µM [activator, full curve, poor fit]
CC12CCC(C(=O)NCCc3ccccc3)(OC1=O)C2(C)C (centres undefined) | inactive
CCOc1cc(C)c(Cl)cc1S(=O)(=O)n1nnc2ccccc21 | active: 17.8 µM
COc1ccc(NC(=S)N2CCN(CCN3C(=O)c4cccc5cccc(c45)C3=O)CC2)cc1 | inconclusive: 1.78 µM [activator, partial curve]
CC(c1ccccc1)N1CCc2[nH]c(=S)[nH]c(=O)c2C1 (centres undefined) | inactive
Cc1ccc(COC(=O)c2ccc(-c3nnn(Cc4ccc(C)cc4)n3)cc2)cc1 | inactive
COc1ccc(-c2noc(CSc3nnc(-c4ccncc4)n3-c3ccc(OC)cc3)n2)cc1 | inactive
CC(=O)N1CCC(=NNc2nc3ccccc3[nH]2)CC1 | inconclusive: 11.2 µM [activator, single point]
CCOc1ccc(C(=O)Nc2cc(-c3nc4ccccc4[nH]3)ccc2Cl)cc1[N+](=O)[O-] | inactive
O=C(NC(=S)Nc1ccc(N2CCOCC2)cc1)c1ccccc1 | inconclusive: 11.2 µM [activator, partial curve]

Compound | Potency
CCCCN1CCCCC1C(=O)Nc1c(C)cc(C)cc1C (centres undefined) | inconclusive: 6.31 µM [activator, partial curve, poor fit]
Clc1cccc(/C(Cc2nc3ccccc3[nH]2)=N\Nc2ccccc2)c1 | inconclusive: 35.5 µM [activator, single point]
Cc1ccc(COn2c(-c3ccc(Cl)cc3)nc3ccc([N+](=O)[O-])cc32)cc1 | inconclusive: 4.47 µM [activator, full curve, poor fit]
COCCNC(=S)N/N=C1\CC(C)CC(C)(C)C1 (centres undefined) | inactive
CCCCOc1ccc(S(=O)(=O)Nc2cccnc2)cc1 | inactive
COc1ccc(Br)cc1-c1nc(C)c(C(C)=O)n1O | inconclusive: 12.6 µM [activator, partial curve, poor fit]
CC1(C)C2CCC1(CS(=O)(=O)N1CCOCC1)C(=O)C2 (centres undefined) | inconclusive: 3.98 µM [activator, partial curve]
Cc1nnc(NC(=O)c2ccc(-c3cccc(C(F)(F)F)c3)o2)s1 | inconclusive: 20 µM [activator, partial curve, poor fit]
COc1cc(/C=N/NC(=O)c2ccc(CSc3nc4ccccc4[nH]3)cc2)cc(OC)c1OC | inconclusive: 12.6 µM [activator, partial curve, poor fit]
O=C(Nc1nc2ccccc2s1)c1ccccc1 | active: 3.55 µM
COC(=O)CSc1nnc(CNC(=O)c2ccccc2F)n1-c1ccc(F)cc1 | inactive
CCOC(=O)/C(=N\NC(=O)c1ccccc1)c1ccccc1 | inconclusive: 0.0316 µM [activator, full curve, poor fit]
O=c1oc2cc(OCc3c(F)cccc3Cl)ccc2cc1-c1ccccn1 | inactive
O=C(Nc1cc2nn(-c3ccccc3)nc2cc1Cl)c1ccco1 | active: 11.2 µM
COC(=O)Cc1ccc(NC(=O)c2ccc(Br)o2)cc1 | inconclusive: 11.2 µM [activator, partial curve, poor fit]
Cc1ccc(-c2cc(C(=O)NCc3ccccn3)c3ccccc3n2)cc1C | active: 12.6 µM
CC(NC(=O)c1ccc(Cl)s1)C1CCCO1 (centres undefined) | inconclusive: 6.31 µM [activator, single point]
Cc1ccsc1/C=N/NC(=O)c1c[nH]c2ccccc12 | inconclusive: 7.08 µM [activator, partial curve, poor fit]
Cc1cc(C(=O)Cn2ncc(Cl)c(Cl)c2=O)c(C)n1CC(F)(F)F | inconclusive: 15.8 µM [activator, partial curve, poor fit]
Cc1cc(C)c(S(=O)(=O)Nc2cc(-c3cn4ccccc4n3)ccc2C)cc1C | inactive
Cc1ccc2[nH]c(C)c(CCNC(=O)c3cc4cc([N+](=O)[O-])ccc4oc3=O)c2c1 | inactive
COc1cc(-c2nc3cnccn3c2Nc2c(C)cccc2C)ccc1O | inconclusive: 12.6 µM [activator, partial curve]
O=C(Oc1ccc(-c2cnc3ccccc3n2)cc1)c1cc([N+](=O)[O-])ccc1Cl | inconclusive: 35.5 µM [activator, single point]
CCOC(=O)c1ccc(N=C2NC(=O)CS2)cc1 | inconclusive: 0.004 µM [activator, full curve, poor fit]
